Assay results taken from patent publication US20200385440A1.
Values belong to the binder of their own block, whether it stands above or below them.

How the values were obtained:
[1] = target: MAGE-A3 pMHC (UniProt P43357); assay: Summary table, row 'IC50 MAGE-A3 pMHC binding'; ELISA on captured biotinylated MAGE-A3 pMHC (which calls the value EC50). The value is taken as that of the parental protein, since the next row gives the shift of the masked TCR.
[2] = target: Titin pMHC (UniProt Q8WZ42); assay: Summary table, row 'IC50 Titin pMHC binding'; ELISA on captured biotinylated Titin pMHC (which calls the value EC50). The value is taken as that of the parental protein, since the next row gives the shift of the masked TCR.
[3] = target: MAGE-A3 pMHC (UniProt P43357); assay: ELISA, biotinylated pMHC on neutravidin plates, anti-histag HRP detection, after urokinase treatment
[4] = target: Titin pMHC (UniProt Q8WZ42); assay: ELISA, biotinylated pMHC on neutravidin plates, anti-histag HRP detection, after urokinase cleavage
[5] = target: Titin pMHC (UniProt Q8WZ42); assay: Summary table, row 'Masked TCR shift' under 'IC50 Titin pMHC binding': fold shift of masked TCR-14 against parental TCR-13; ELISA
[6] = target: MAGE-A3 pMHC (UniProt P43357); assay: Summary table, row 'Masked TCR shift' under 'IC50 MAGE-A3 pMHC binding': fold shift of masked TCR-14 against parental TCR-13; ELISA
[7] = target: MAGE-A3 pMHC (UniProt P43357); assay: ELISA, biotinylated pMHC on neutravidin plates, anti-histag HRP detection, after urokinase cleavage

IC50 [1]: 0.5 nM
IC50 [2]: 1 nM
EC50 [3]: 0.7 nM
B1: TCR-13 (TCR)
TCR alpha: MQEVTQIPAALSVPEGENLVLNCSFTDSAIYNLQWFRQDPGKGLTSLLYVRPYQREQTSGRLNASLDKSSGRSTLYIAASQPGDSATYLCAVRPGGAGPFFVVFGKGTKLSVIPNIQNPDPAVYQLRDSKSSDKSVCLFTDFDSQTNVSQSKDSDVYITDKCVLDMRSMDFKSNSAVAWSNKSDFACANAFNNSIIPEDTFFPSPESSGGHHHHHHHH
TCR beta: [sequence of about 250 residues omitted]GGGGSKAGVTQTPRYLIKTRGQQVTLSCSPISGHRSVSWYQQTPGQGLQFLFEYFSETQRNKGNFPGRFSGRQFSNSRSEMNVSTLELGDSALYLCASSFNMATGQYFGPGTRLTVTEDLKNVFPPEVAVFEPSEAEISHTQKATLVCLATGFYPDHVELSWWVNGKEVHSGVCTDPQPLKEQPALNDSRYALSSRLRVSATFWQNPRNHFRCQVQFYGLSENDEWTQDRAKPVTQIVSAEAWGRADGGGLNDIFEAQKIEWHE

Masked TCR shift [5]: > 1000 x
Masked TCR shift [6]: 500 x
B3: TCR-14 (TCR)
TCR alpha: MGGVSCKDVYDEAFCWTGGGGSLSGRSDNHGSSGTKQEVTQIPAALSVPEGENLVLNCSFTDSAIYNLQWFRQDPGKGLTSLLYVRPYQREQTSGRLNASLDKSSGRSTLYIAASQPGDSATYLCAVRPGGAGPFFVVFGKGTKLSVIPNIQNPDPAVYQLRDSKSSDKSVCLFTDFDSQTNVSQSKDSDVYITDKCVLDMRSMDFKSNSAVAWSNKSDFACANAFNNSIIPEDTFFPSPESSGGHHHHHHHH
TCR beta: [sequence of about 250 residues omitted]GGGGSKAGVTQTPRYLIKTRGQQVTLSCSPISGHRSVSWYQQTPGQGLQFLFEYFSETQRNKGNFPGRFSGRQFSNSRSEMNVSTLELGDSALYLCASSFNMATGQYFGPGTRLTVTEDLKNVFPPEVAVFEPSEAEISHTQKATLVCLATGFYPDHVELSWWVNGKEVHSGVCTDPQPLKEQPALNDSRYALSSRLRVSATFWQNPRNHFRCQVQFYGLSENDEWTQDRAKPVTQIVSAEAWGRADGGGLNDIFEAQKIEWHE

Continued, binder first:

B2: TCR-14 after urokinase (uPA) cleavage (TCR)
TCR alpha: MGGVSCKDVYDEAFCWTGGGGSLSGRSDNHGSSGTKQEVTQIPAALSVPEGENLVLNCSFTDSAIYNLQWFRQDPGKGLTSLLYVRPYQREQTSGRLNASLDKSSGRSTLYIAASQPGDSATYLCAVRPGGAGPFFVVFGKGTKLSVIPNIQNPDPAVYQLRDSKSSDKSVCLFTDFDSQTNVSQSKDSDVYITDKCVLDMRSMDFKSNSAVAWSNKSDFACANAFNNSIIPEDTFFPSPESSGGHHHHHHHH
TCR beta: [sequence of about 250 residues omitted]GGGGSKAGVTQTPRYLIKTRGQQVTLSCSPISGHRSVSWYQQTPGQGLQFLFEYFSETQRNKGNFPGRFSGRQFSNSRSEMNVSTLELGDSALYLCASSFNMATGQYFGPGTRLTVTEDLKNVFPPEVAVFEPSEAEISHTQKATLVCLATGFYPDHVELSWWVNGKEVHSGVCTDPQPLKEQPALNDSRYALSSRLRVSATFWQNPRNHFRCQVQFYGLSENDEWTQDRAKPVTQIVSAEAWGRADGGGLNDIFEAQKIEWHE
EC50 [4]: 5 nM

B4: TCR-15 after urokinase (uPA) cleavage (TCR)
TCR alpha: MGGVSCKDVYDEAFCWTGGGGSSGGSGGSGLSGRSDNHGSSGTKQEVTQIPAALSVPEGENLVLNCSFTDSAIYNLQWFRQDPGKGLTSLLYVRPYQREQTSGRLNASLDKSSGRSTLYIAASQPGDSATYLCAVRPGGAGPFFVVFGKGTKLSVIPNIQNPDPAVYQLRDSKSSDKSVCLFTDFDSQTNVSQSKDSDVYITDKCVLDMRSMDFKSNSAVAWSNKSDFACANAFNNSIIPEDTFFPSPESSGGHHHHHHHH
TCR beta: [sequence of about 250 residues omitted]GGGGSKAGVTQTPRYLIKTRGQQVTLSCSPISGHRSVSWYQQTPGQGLQFLFEYFSETQRNKGNFPGRFSGRQFSNSRSEMNVSTLELGDSALYLCASSFNMATGQYFGPGTRLTVTEDLKNVFPPEVAVFEPSEAEISHTQKATLVCLATGFYPDHVELSWWVNGKEVHSGVCTDPQPLKEQPALNDSRYALSSRLRVSATFWQNPRNHFRCQVQFYGLSENDEWTQDRAKPVTQIVSAEAWGRADGGGLNDIFEAQKIEWHE
EC50 [7]: 1 nM
